Reference: PMC4242493
The other results are listed elsewhere or left out. The list includes weakly bound sequences.

Each sequence was assayed against MaxL homodimer (UniProt P61244) (assay: universal protein-binding microarray (PBM)). Details: PBS-based mixture, 10 nM His-tagged protein dimer, 2% milk, 200 ng/uL BSA, 50 ng/uL salmon testes DNA, 0.02% TX-100; detection with Alexa 488 anti-His …; high values mean tight binding; most listed sequences are background and not binding sites; double strand, one strand shown.
Sequence of UniProt P61244 (P61244 whole entry): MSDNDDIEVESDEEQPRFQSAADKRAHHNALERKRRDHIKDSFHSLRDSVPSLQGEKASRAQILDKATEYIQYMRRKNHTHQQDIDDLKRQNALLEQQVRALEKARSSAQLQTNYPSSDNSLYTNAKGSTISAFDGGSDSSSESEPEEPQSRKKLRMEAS

Sequence	binding signal (normalized occupancy)
ACGTTACA	0.0874
CTATCTCA	0.0746
CAACGACA	0.0783
CACTCAAA	0.0802
AAATCAAT	0.0758
ATATTAAG	0.0782
AACATGCA	0.0927
TGCGATAA	0.0736
CTTACTTA	0.0782
CTCGGATA	0.0706
TCCGTAAA	0.0698
ACACACGC	0.103
GATATGGA	0.084
ATGTCGTC	0.0814
CTCTTCCA	0.0726
CTATGTGC	0.0816
GACAAGCA	0.0747
CTTCCTGC	0.0718
ACCATTGA	0.0755
AGGGAAAT	0.0833
TATTGACA	0.0824
AGCAGTGG	0.0727
ACATCCTG	0.084
TAGTAGAA	0.0761
GGGCCCAC	0.0708

Sequence	binding signal (normalized occupancy)
CTACAAAG	0.0689
ACTTATCG	0.0741
ACTCCCCG	0.0782
GCGACCAC	0.0804
CCCGTTTA	0.0757
ATGAGCCC	0.0757
GGGAAGGA	0.0751
ACTTTGGG	0.0723
AGGCGGTC	0.0748
TCATCCGA	0.0783
CCGCTTAG	0.0708
CAACTACC	0.0747
CTCAGTCC	0.0695
CCGCCAAC	0.0712
ACCCAAAT	0.078
ATTGTAGG	0.0783
AAGGTCAA	0.0761
ATGCGGGG	0.0853
CATCGGGA	0.0724
AGCCGCTG	0.0655
GGCCTAGA	0.0747
GAGATAGC	0.0772
TGGCGAAA	0.0783
CTTAAGGA	0.072
GTTTGAGA	0.0749

Sequence	binding signal (normalized occupancy)
AGTCGCAG	0.0648
AGACCCAT	0.078
CCTAAAGG	0.0662
AGTATTAC	0.0782
GGCTAGTA	0.0703
ACACTCGC	0.0776
AGTTCAGG	0.0784
AGGTCCGC	0.0706
ACCCCACG	0.0905
TCTTCACA	0.077
TAAGCAGA	0.0747
ATAATTGG	0.0741
TACCGAAA	0.072
GTAGATTA	0.0766
CTACTGCA	0.0732
AGCCATAT	0.0877
GACTGCCA	0.0784
CGACCATC	0.0749
ACTCGTCC	0.0706
CAGTCAGA	0.0692
CACCTCGA	0.0713
AAACTCCC	0.073
GAATGAAC	0.0733
ACAGTCCA	0.0763
GGAGAAGA	0.0765

Sequence	binding signal (normalized occupancy)
CTATAGAA	0.0788
CCTCTTAG	0.0678
TGCGACAA	0.0767
CCCGTTAG	0.0731
CTTTCTTC	0.0663
GAAGCGAC	0.0698
ATTGTCGG	0.0769
AAAAGATA	0.0767
GCACCGCC	0.0692
AAAAATTC	0.0788
AGAAGGCG	0.071
ATACAACC	0.0773
AACTAACA	0.0814
ATGGCAAT	0.0843
AAAGTGCG	0.0712
AGAGTTAA	0.0737
GCACCGAC	0.0725
CACGGATA	0.0831
AGAATTCC	0.0763
AGCCAACA	0.0808
AACTCAGC	0.0711
AATAATCC	0.0765
AGGGCCCG	0.0707
AGTAGACC	0.073
GGATTCAC	0.0757

Sequence	binding signal (normalized occupancy)
AGTGCACC	0.0743
CCAGATAC	0.0776
ACATACAC	0.0864
AGGTAGAA	0.0764
CCACCAAA	0.0705
CAATAGGC	0.0693
CCCCATAC	0.0855
GGTTCCTA	0.0705
CTCAGCAC	0.0798
CCCACGTC	0.0804
ACTGGTCA	0.0714
GACGAGTC	0.0712
ATGCCAAC	0.0785
CTAGGGAC	0.0703
CACGCTCC	0.0886
GCGCCCAC	0.0744
AGCACGAT	0.0857
AAGGGTGT	0.0759
AGGAAATC	0.0742
CTACCTCC	0.0776
AGTAAGTG	0.0722
CTCTGCTC	0.0677
ATTCACGC	0.093
CCCACCAC	0.0842
AGATGGTA	0.0798

Sequence	binding signal (normalized occupancy)
ACTAGTCC	0.0743
AACTTTGG	0.0711
CGCTGAAC	0.0719
CTAGACAG	0.0763
AATAGTCA	0.0803
AAGGCACT	0.071
CTCGCTAC	0.0693
GAGTGAGA	0.0795
ATGCCCAG	0.0765
ACAGTGCG	0.0786
CGTGGGTA	0.0867
CTCAAGAA	0.0729
AGAGAGCG	0.0674
ATACCTAG	0.0756
AGCGTGCA	0.108
AAGTGGTA	0.0752
CACGGATG	0.0776
CCATCGTA	0.0798
AACTAAGC	0.0683
AGCAACTG	0.0694
AGCTCAGA	0.0726
ATGTCATA	0.0875
GCGCGGAA	0.0739
ACTCCGCA	0.077
ACGCGCCA	0.0799

Sequence	binding signal (normalized occupancy)
GGGCTCAC	0.0747
AGCCTTCC	0.0678
ACTGGTTC	0.0704
CACGAACG	0.0756
CGCGTATA	0.0739
ATAGGGCG	0.0757
CACGCACA	0.0923
GCCAGAGA	0.0691
CGGTGCTA	0.074
ATGTATCC	0.0851
CTCTCCTC	0.0763
GCCCCCGC	0.0725
AGCCCATC	0.0708
GCTTTATA	0.0779
ACGACCAG	0.0771
ATCGTCAG	0.073
CCTTGGAC	0.0694
GCTGGACC	0.0695
CAGACCGA	0.0678
CGGGCACA	0.0728
AACAGCGG	0.0696
CGGTCACC	0.0714
